We go through 44 compounds from the supplement of paper PMC4723716.

± gives the uncertainty stated by the source. The full ranking holds about 9,900 compounds; the median of “viability index relative to DMSO control” is about 1, and the lowest 2% start at about 0.85. Some of the results follow.

This test deals with Plasmodium falciparum NF54 stage V gametocytes. The test is described as follows: viability index relative to DMSO control (fraction); higher = less gametocyte killing. The conditions noted are these: 2.5 µM, library set: Broad Institute DOS, incubation time: 72 h. On the procedure: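 Broad DOS informer set and blood-stage-active DOS compounds screened in duplicate at 2.5 µM against P. falciparum NF54 stage V gametocytes with the serum-free one-step SaLSSA (1536-well): 72 h at 37 °C under low oxygen, then saponin lysis and MitoTracker Red CMXRos staining, with high-content imaging. Viability index = viable-object count divided by the plate mean of DMSO wells (0 = killed, about 1 = inactive).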
`C[C@H]1CN([C@@H](C)CO)C(=O)c2cc(NC(=O)C3CC3)ccc2O[C@H]1CN(C)S(=O)(=O)c1ccccc1` registered a viability index of 1.09 ± 0.076. Turning to `O=C(c1cnccn1)N1C[C@H]2[C@@H](c3ccccc31)[C@@H](CO)N2CC1CCCC1`, the viability index is 1.06 ± 0.093. For `Cc1ccc(S(=O)(=O)Nc2ccc3c(c2)C(=O)N([C@H](C)CO)C[C@@H](C)[C@H](CN(C)S(=O)(=O)c2cccs2)OCCCC[C@@H](C)O3)cc1` the value was 1.04 ± 0.032. For `CCNC(=O)c1cc2c(c(-c3cccc(-c4cccc(C(=O)N(C)C)c4)c3)n1)[C@H](CCO)N([S@@](=O)C(C)(C)C)C2` the value was 1.07 ± 0.016; for `C[C@@H]1CN([C@H](C)CO)C(=O)Cc2cc(NS(=O)(=O)c3cn(C)cn3)ccc2O[C@@H]1CN(C)Cc1ccc2c(c1)OCO2`, 0.962 ± 0.15; for `O=C(Nc1ccccc1)N1CC(=O)N2[C@H](C1)[C@H](c1ccc(C#CC3CCCCC3)cc1)[C@@H]2CO`, 1.12 ± 0.054.

Compound `CN1CCN(C(=O)c2cc3c(c(-c4cccc(C#CCC5CCCC5)c4)n2)[C@H](CCO)N(S(=O)C(C)(C)C)C3)CC1` (some centres undefined) returned a viability index of 1.04 ± 0.014. For the compound `COc1cc(CN2C[C@@H]3N[C@H](C2)[C@H]3c2ccc(-c3ccc(C#N)cc3)cc2)cc(OC)c1`, the viability index is 1.03 ± 0.07. For `O=C(Nc1cccc(F)c1)N1CCCCN2[C@H](CO)[C@@H](c3ccc(C#Cc4cccnc4)cc3)[C@@H]2C1` the value was 1.07 ± 0.078.

For `O=C(C[C@@H]1C[C@@H]2c3cc(NC(=O)Nc4ccccc4F)ccc3O[C@@H]2[C@H](CO)O1)NCc1ccccn1`, the viability index is 1.03 ± 0.059. For `C[C@@H]1CN([C@@H](C)CO)C(=O)CCCn2nncc2CO[C@@H]1CN(C)C(=O)CCC(F)(F)F` the value was 1.04 ± 0.055; for `CCCC(=O)Nc1ccc2c(c1)OC[C@H](C)N(S(=O)(=O)c1cn(C)cn1)C[C@@H](C)[C@@H](OC)CN(C)C2=O`, 1.06 ± 0.026. For `COc1ccc2c3c([nH]c2c1)[C@@H](CO)N(C)C[C@]31CCN(CC1)C(=O)c1ccccn1` the value was 0.889 ± 0.13; for `C[C@@H]1CN([C@@H](C)CO)C(=O)Cc2cc(NC(=O)Nc3ccc(F)cc3)ccc2O[C@H]1CN(C)S(C)(=O)=O`, 1.05 ± 0.012.

Compound `COc1ccccc1CNC(=O)C[C@H]1C=C[C@@H](NC(=O)CC2CC2)[C@@H](CO)O1` displayed a viability index of 1.04 ± 0.051. With `C/C=C/c1ccc([C@H]2[C@@H](CO)N[C@@H]2CNC(=O)C2CC2)cc1`, the viability index came out at 1.06 ± 0.012. For `C[C@H]1CN([C@@H](C)CO)C(=O)CCCn2nncc2CO[C@H]1CN(C)C(=O)c1ccc2ccn(C)c2c1`, the viability index is 1.015 ± 0.0067.

Take `CCCC#Cc1cnc2c(c1)C(=O)N([C@@H](C)CO)C[C@@H](C)[C@@H](CN(C)C(=O)Nc1cc(F)ccc1F)O2`: the viability index amounted to 1.02 ± 0.012. Under `N#C[C@H]1N[C@H](CO)[C@@H]1c1ccc(C2=CCCC2)cc1` stands 1.035 ± 0.0096; under `CC(C)[C@@H]1C(=O)N[C@@H](c2cccc(Cl)c2)C/C=C/C[C@@H](C)Oc2ccccc2C(=O)N1C.CC(C)[C@@H]1C(=O)N[C@@H](c2cccc(Cl)c2)C/C=C\C[C@@H](C)Oc2ccccc2C(=O)N1C`, 0.993 ± 0.049; under `COCC#Cc1ccc([C@@H]2[C@H]3CN(C(=O)c4ccncc4)CC(=O)N3[C@H]2CO)cc1`, 1.05 ± 0.0086. In turn, `C/C=C/c1ccc([C@@H]2[C@@H](CO)N3CCCCN(CCC(F)(F)F)C[C@@H]23)cc1` displayed a viability index of 1.06 ± 0.049. Under `C[C@@H]1CCCCO[C@@H](CN(C)S(=O)(=O)c2cn(C)cn2)[C@@H](C)CN([C@H](C)CO)C(=O)c2cc(NC(=O)Nc3cccc4ccccc34)ccc2O1` stands 1.05 ± 0.042; under `COc1ccc(CN2[C@H](CO)[C@H]3c4ccccc4NC[C@H]32)cc1`, 1.09 ± 0.013.

Turning to `C[C@H](CO)N1C[C@H](C)[C@H](CN(C)Cc2ccc(Oc3ccccc3)cc2)Oc2ccc(N(C)C)cc2C1=O`, the viability index amounted to 1.01 ± 0.043. The compound `COCCNC(=O)C[C@H]1CC[C@@H]2[C@H](COC[C@@H](O)CN2Cc2ccc(Cl)c(Cl)c2)O1` showed a viability index of 1.06 ± 0.066.

Consider `CC[C@H]1C/C=C\C[C@H](c2ccccc2)NC(=O)CCC(=O)N1`, for which the viability index is 1.08 ± 0.011.

Turning to `N#Cc1ccc(-c2ccc3c(c2)[C@H]2[C@H](CCN2C(=O)C2CCCCC2)[C@H](CO)N3)cc1`, the viability index is 1.11 ± 0.057. For `CCCC(=O)Nc1ccc2c(c1)C(=O)N(C)C[C@@H](OC)[C@H](C)CN(Cc1ccc(F)cc1)[C@H](C)CO2` the value was 1.01 ± 0.061. Under `C/C=C/c1ccccc1[C@H]1[C@@H](C#N)N(C(=O)c2cccnc2)[C@@H]1CO` stands 1.13 ± 0.14. In turn, `C[C@H]1CN([C@@H](C)CO)C(=O)c2cccc(NC(=O)Nc3ccc(F)cc3)c2O[C@@H]1CN(C)S(=O)(=O)c1ccc(Cl)cc1` displayed a viability index of 0.96 ± 0.085. Consider `Cc1ccccc1S(=O)(=O)N1CC[C@@H]2[C@H](CO)Nc3ccc(-c4ccc(F)cc4)cc3[C@@H]21`, for which the viability index was 1.02 ± 0.079.

`CCCN1C[C@@H](C)[C@@H](OC)CN(C)C(=O)c2cc(NC(=O)Nc3cccc(F)c3)ccc2OC[C@@H]1C` displayed a viability index of 1.01 ± 0.032.

The compound `C[C@H](CO)N1C[C@H](C)[C@H](CN(C)C(=O)CN2CCOCC2)Oc2ncc(-c3ccncc3)cc2C1=O` displayed a viability index of 1.12 ± 0.034.

On to `CO[C@@H]1CN(C)C(=O)c2ccc(NS(=O)(=O)c3ccc(C)cc3)cc2OC[C@@H](C)N(C)C[C@@H]1C`, for which the viability index turned out to be 1.06 ± 0.013. Under `CC(C)NC(=O)N(C)C[C@H]1Oc2c(NS(=O)(=O)c3cccs3)cccc2C(=O)N([C@@H](C)CO)C[C@H]1C` stands 1.02 ± 0.06; under `COC(=O)C[C@@H]1CC[C@@H]2[C@@H](COc3ccc(NC(=O)c4ccc(C(F)(F)F)cc4)cc3C(=O)N2C)O1`, 1.13 ± 0.065. Under `COc1ccc2c3c([nH]c2c1)[C@@H](CO)N(C[C@]31CCN(CC1)C(=O)C1CCCCC1)C(=O)NC(C)C` stands 0.935 ± 0.079; under `C[C@H]1CN([C@@H](C)CO)C(=O)c2ccccc2-c2ccccc2CO[C@@H]1CN(C)Cc1cccnc1`, 1.03 ± 0.073. For `COc1ccc2c3c([C@H](CO)N(C[C@]33CCN(CC3)C(=O)CN(C)C)C(=O)C3CC3)n(C)c2c1` the value was 0.9351 ± 0.0013; for `C[C@H]1CN([C@@H](C)CO)C(=O)c2ccccc2-c2ccccc2CO[C@H]1CN(C)Cc1ccc2c(c1)OCCN2C`, 1 ± 0.1. As for `CO[C@@H]1CN(C)C(=O)c2ccc(NC(=O)Nc3ccccc3)cc2OC[C@H](C)N(C(=O)CC2CC2)C[C@@H]1C`, the viability index came to 1.01 ± 0.042.

With `C[C@@H]1CN([C@@H](C)CO)C(=O)c2ccccc2-c2ccccc2CO[C@@H]1CN(C)C(=O)Nc1ccnc(N2CCOCC2)c1`, the viability index worked out at 1.056 ± 0.0095. For `C[C@H](CO)N1C[C@H](C)[C@@H](CN(C)Cc2ccccc2C(=O)O)OCc2cnnn2CCCC1=O` the value was 0.915 ± 0.013.
